Laboratory results taken from paper PMC4336329 (PLoS ONE, 2015).
The whole screen tested about 310,000 compounds, of which about 2,200 (0.71%) showed an effect of 50% or more. The effect is printed as a negative number. This is one part of the list.

These molecules were tested against human ether-à-go-go-related gene (hERG) potassium channel (human, UniProt Q12809) (assay: primary screen, population patch clamp on CHO cells stably expressing hERG).
human ether-à-go-go-related gene (hERG) potassium channel, sequence (Q12809 whole entry, looked up): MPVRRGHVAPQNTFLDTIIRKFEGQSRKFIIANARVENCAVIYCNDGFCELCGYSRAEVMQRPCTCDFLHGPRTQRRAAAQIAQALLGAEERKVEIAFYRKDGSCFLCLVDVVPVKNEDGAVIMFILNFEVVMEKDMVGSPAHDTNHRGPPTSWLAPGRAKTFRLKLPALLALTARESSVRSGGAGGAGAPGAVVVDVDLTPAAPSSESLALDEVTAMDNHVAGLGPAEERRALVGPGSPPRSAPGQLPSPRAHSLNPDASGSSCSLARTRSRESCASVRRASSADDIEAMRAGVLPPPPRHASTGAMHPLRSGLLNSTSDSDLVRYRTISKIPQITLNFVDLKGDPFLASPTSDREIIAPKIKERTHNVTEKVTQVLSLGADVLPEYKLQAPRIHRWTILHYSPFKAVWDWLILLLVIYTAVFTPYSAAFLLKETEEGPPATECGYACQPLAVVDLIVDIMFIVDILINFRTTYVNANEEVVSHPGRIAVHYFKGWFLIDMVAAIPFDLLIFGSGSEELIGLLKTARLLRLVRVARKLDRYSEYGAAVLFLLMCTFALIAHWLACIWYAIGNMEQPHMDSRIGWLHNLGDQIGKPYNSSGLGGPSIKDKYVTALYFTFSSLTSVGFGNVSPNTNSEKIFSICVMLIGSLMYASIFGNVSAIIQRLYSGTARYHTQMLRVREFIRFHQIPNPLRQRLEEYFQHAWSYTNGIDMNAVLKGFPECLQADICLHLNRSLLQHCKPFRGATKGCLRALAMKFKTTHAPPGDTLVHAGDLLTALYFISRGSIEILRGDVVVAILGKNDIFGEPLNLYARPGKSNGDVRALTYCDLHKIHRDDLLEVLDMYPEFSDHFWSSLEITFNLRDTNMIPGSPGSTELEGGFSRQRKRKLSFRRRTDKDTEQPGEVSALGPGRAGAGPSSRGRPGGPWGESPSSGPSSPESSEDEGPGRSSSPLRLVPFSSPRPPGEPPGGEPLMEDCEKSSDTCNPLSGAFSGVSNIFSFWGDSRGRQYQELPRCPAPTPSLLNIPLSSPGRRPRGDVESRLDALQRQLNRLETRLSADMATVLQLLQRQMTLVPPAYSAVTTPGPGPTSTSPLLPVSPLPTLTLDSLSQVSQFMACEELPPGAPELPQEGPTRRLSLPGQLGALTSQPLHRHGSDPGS

SMILES	hERG current change (%, negative = inhibition) at 1uM
CC1C(=O)N2CCCc3cc(NC(=O)c4ccccc4C(F)(F)F)cc1c32 (stereo not shown)	3.69%
O=C(NCCN1CCOCC1)c1ccc(N2CCCC2)c([N+](=O)[O-])c1	-2.75%
N/C(=N\OC(=O)c1ccccc1)c1ccccn1	5.7%
O=C(CNS(=O)(=O)c1ccc(C(=O)N2CCOCC2)cc1)N1CCOCC1	6.3%
O=C(O)CSc1nnc2c(n1)[nH]c1ccccc12	6.46%
CCCc1nnc(NC(=O)CCC(=O)N2CCN(Cc3ccccc3)CC2)s1	5.03%
Cc1cc(C(=O)N/N=C/c2ccccc2[N+](=O)[O-])c(C)o1	21.8%
CCOC(=O)c1c(C)n(C)c2cc(Br)c(O)c(O)c12	8.58%
O=C(CCSc1nnc(-c2ccncc2)o1)Nc1ccc(Cl)cc1	-2.1%
CCOC(=O)c1cc(-c2cccs2)nn1CCC#N	6.38%
Cc1ccccc1CSCCNC(=O)CN(c1ccc2c(c1)OCO2)S(C)(=O)=O	2.72%
CC1Oc2ccccc2N(CC(=O)Nc2ccc(F)cc2)C1=O (stereo not shown)	6.62%
O=c1cc(-c2ccc(F)cc2)[nH][nH]1	13.7%
O=C(O)C1C2C=CC(C2)C1C(=O)OCC1CCCO1 (stereo not shown)	-0.788%
COc1ccc(NC(=O)CSc2nc(N)c(-c3ccccc3)c(=O)[nH]2)cc1	5.64%
COc1cccc(C2/C(=C(\O)c3ccc4c(c3)OCCO4)C(=O)C(=O)N2Cc2cccnc2)c1 (stereo not shown)	14.6%
CCc1noc(C)c1C(=O)Nc1cc(S(=O)(=O)N2CCCCC2)ccc1N(C)C	4.54%
O=C(C[N+]1(CC#Cc2ccccc2)CCCCC1)c1ccccc1.[Br-]	9.38%
Cc1nc(C#N)c(NCc2ccc3c(c2)OCO3)o1	13%
Cc1cc(C(=O)NCCc2ccc(Cl)cc2)c(C)o1	15%
Nc1c(-c2ccccc2)cnn1-c1ccc(C(=O)O)cc1	0.454%
O=C(COC(=O)Cn1cc(C(F)(F)F)ccc1=O)Nc1ccccc1	16.4%
COc1ccccc1-c1noc(-c2ccccc2C(=O)NCc2ccco2)n1	5.15%

SMILES	hERG current change (%, negative = inhibition) at 1uM
CSc1cccc(NC(=O)Nc2ccccc2)c1	0.861%
CN(C)/C=N/c1ncc(C(=O)c2ccc(Cl)cc2Cl)s1	-4.09%
O=C(Nc1ccccc1)C1CCN(S(=O)(=O)c2ccc3c(c2)OCCO3)CC1	-0.723%
COCCN(C(=O)CCC(=O)Nc1nccs1)C(C(=O)NC(C)(C)C)c1ccc(Cl)cc1 (stereo not shown)	4.63%
CN(c1nc2nonc2nc1NC1CC1)C1CCOC1 (stereo not shown)	16.5%
CC(CN1C(C)CCCC1C)OC(=O)c1ccccc1Cl (stereo not shown)	-0.233%
CCc1ccc(/C=N/NC(=O)c2cc(-c3cccc([N+](=O)[O-])c3)n[nH]2)cc1	-0.852%
CN1CCN(S(=O)(=O)c2ccc(Cc3ccc(S(=O)(=O)N4CCN(C)CC4)cc3)cc2)CC1	14.2%
Cc1nn(Cc2ccccc2)c(C)c1C(=O)NC1CCCc2ccccc21 (stereo not shown)	9.54%
CN(Cc1c(C(=O)N/N=C/c2ccc(O)cc2)nnn1-c1nonc1N)C1CCCCC1	8.94%
Cc1cccc(OCCC(=O)OC(C)C(=O)Nc2ccc(Cl)cn2)c1 (stereo not shown)	-9.01%
CN1CCN(CCCNC(=O)c2cc3c(=O)oc4ccccc4c3s2)CC1	4.39%
CCOc1ccc2noc3c2c1C(=O)c1ccccc1-3	5.69%
COCCCN1CC(=O)N2C(c3cccc(OC)c3)c3[nH]c4ccccc4c3C[C@H]2C1=O (stereo partly shown)	14%
O=C(CCSCc1ccc(Cl)cc1)NCc1cccnc1	6.09%
NC(=S)Nc1nc2ccccc2[nH]c1=O	10.8%
O=C(/C(=N\Nc1ccc([N+](=O)[O-])cc1)Sc1nnnn1-c1ccccc1)c1ccccc1	7.63%
O=C(Cc1ccccc1)N1CCC(c2nc3ccccc3[nH]2)CC1	-4.82%
CCCn1c(SCC(=O)N2CCCC(C)C2)nnc1-c1ccccn1 (stereo not shown)	5.2%
O=C(CC(C(=O)N1CCc2ccccc21)n1ccnc1)N1CCc2ccccc2C1 (stereo not shown)	-11.4%
COc1cc(NS(=O)(=O)c2cc3[nH]c(=O)c(=O)[nH]c3cc2C)cc(OC)c1OC	1.69%
O=C(CN1C(=O)C2CCCCC2C1=O)Nc1nccs1 (stereo not shown)	12.3%
Cn1ncc(Br)c1C(=O)N1CCOCC1	2.71%

SMILES	hERG current change (%, negative = inhibition) at 1uM
CC(C)Oc1ccc(C(=O)/C=C2/C(=O)Nc3ccccc32)cc1	12.3%
O=C(/C=C/c1ccc(-c2ccccc2)o1)c1ccccc1	10.1%
N#C/C(=C(/O)c1cccs1)c1nnc2n1CCCCC2	3.57%
Cc1ccc(S(=O)(=O)CCC(=O)OCc2ccccc2F)cc1	16.5%
CCOc1ccccc1N(CC(=O)Nc1ccc(S(=O)(=O)N2CCOCC2)cc1)S(=O)(=O)c1ccc(Cl)cc1	-0.46%
CN(C)c1ccc(C(=O)Nc2cccc(S(=O)(=O)N3CCCC3)c2)cc1	7.09%
Cc1ccc(-n2ncc3c(=O)n(CC#N)cnc32)cc1	2.82%
Cc1ccc(N2CC(c3nc4ccccc4[nH]3)CC2=O)c(C)c1 (stereo not shown)	9.18%
CC(C)c1cc(C(F)(F)F)n2nc(C(=O)O)cc2n1	-1.95%
O=C1C2C3C=CC(C3)C2C(=O)N1CCC(=O)N1CCc2ccccc21 (stereo not shown)	-2.62%
Cl.NCCNC(=O)c1ncsc1-c1cccc(F)c1	12.7%
COc1ccc(NC(=O)C(c2ccc(C)cc2)N(C)C(=O)Cc2cccs2)cc1 (stereo not shown)	7.63%
O=C(CCS(=O)(=O)c1ccc(Cl)cc1)Nc1ccc(F)cc1	13.4%
Cc1ccc(NC(=O)/C=C/c2ccc3c(c2)OCO3)cc1S(=O)(=O)N1CCOCC1	5.88%
Cc1cc(C)n(S(=O)(=O)c2ccc3oc(=O)ccc3c2)n1	8.16%
Cc1cc(C)nc(NC(=O)Nc2ccc(F)cc2F)n1	13.4%
CCc1c(C)nc2ncnn2c1N1CCN(S(=O)(=O)c2ccc(OC)cc2)CC1	-0.7%
Cn1c(=O)c2c(=O)cc(NNC(=O)CC#N)[nH]c2n(C)c1=O	10.8%
CC1=CC(C)C2(COC(=O)Nc3ccccc3)COC(C)C1C2C (stereo not shown)	9.9%
O=C(CCC(=O)Nc1ccc(Br)cc1)N/N=C/c1ccc(F)cc1	4.49%
Cc1ccc(C(C)C)c(OCCN)c1.Cl	15.1%
COc1cccc(C(=O)CC(=O)C(=O)Nc2ccc([N+](=O)[O-])cc2C)c1	12.7%
COc1ccccc1N1CCN(Cc2ccc(OC)c3ccccc23)CC1	4.28%

SMILES	hERG current change (%, negative = inhibition) at 1uM
Cc1cccc(N=C2NN=C(c3ccc4c(c3)OCCO4)CS2)c1	-1.6%
CCOC(=O)c1c(C)[nH]c(C(=O)CSc2nnc(-c3ccncc3)n2CC)c1C	4.02%
CC(=O)Nc1cc(-c2ccc(F)cc2)[nH]n1	12.2%
COCCNC(=O)CSc1nc2ccccc2c(=O)n1CCC(=O)NCCc1ccc(OC)c(OC)c1	10.4%
CC(=O)Nc1ccc(NC2(C)C(=O)c3ccccc3C2=O)cc1	6.75%
Nc1nc(C23CC4CC(CC(C4)C2)C3)[nH]c(=O)n1	17%
Cc1cccc2cc(C(c3nnnn3C(C)(C)C)N(Cc3ccco3)CC3CCCO3)c(=O)[nH]c12 (stereo not shown)	-5.57%
COc1ccc(NC(=O)CSc2nnc(Cn3c(=O)sc4ccccc43)n2C)c(OC)c1	-2.58%
COc1ccc(CNC(=O)CN2CCN(c3cccc(C)c3C)CC2)cc1	7.33%
CCC(=O)N(CC)c1nc(-c2cc(OC)ccc2OC)cs1	12.9%
NNC(=O)COc1ccc(-c2n[nH]c(C(F)(F)F)c2-c2ccc(Br)cc2)c(O)c1	11.8%
Cc1cc(OCC(=O)NCc2nc(-c3ccccc3)no2)c(C)cc1Br	11.9%
NC(=O)CC(NC(=O)Cc1ccc(Cl)cc1)c1ccc(NCCc2ccccc2F)c([N+](=O)[O-])c1 (stereo not shown)	2.88%
c1ccc(OCc2nnc3sc(C4COc5ccccc5O4)nn23)cc1 (stereo not shown)	4.75%
c1ccc(OCc2nn3c(C4CCCCC4)nnc3s2)cc1	-10.7%
CC(C)Oc1cccc(C(=O)N2CCCC2)c1	9.63%
CCOC(=O)c1ccc(CSc2nncn2N)o1	16%
O=C(Nc1ccccc1N1CCOCC1)c1ccc(N2CCCC2=O)cc1	7.28%
CSc1nc2sc3c(c2c(=O)[nH]1)CCCC3	14.3%
Cc1ccc(N2CCCCn3c2nc2c3c(=O)[nH]c(=O)n2C)cc1	5.04%
Cc1nc2c(C#N)c(-c3ccc(Cl)cc3)ccn2n1	14.8%
CCN(CC)Cc1c(C(=O)N2CCc3ccccc3C2)nc2ccc(Cl)cn12	-8.42%
